Values marked as one replicate rest on one cluster of the flow cell; about a third of the high ones do not repeat.
Tested on: ATP
Assay: switch fluorescence ratio, 500 uM ATP over buffer (Cy3 cluster intensity, sum of 5 cycles each) (fold (ratio)); higher = stronger signal-on switching upon ATP binding; sequences stand for … in TCGTCGGCAGCGTCAGATGTGTATAAGAGACAGTTTTTTTTTTTTTTTTTTTTTTTTT…TC
Conditions: aptamer strand: ATP DNA aptamer (quencher-CACCTGGGGGAGTATTGCGGAGGAAGG + anchor), 100 nM annealed; ATP concentration: 500 uM; one replicate
How it was run: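 Exposure to 500 uM ATP lasted 15 min at 22 °C before imaging, and a selection-buffer image was taken beforehand, for Cy3-labelled switching-strand clusters on a modified Illumina MiSeq flow-cell annealed to 100 nM quencher-labelled ATP aptamer. Five buffer/ATP cycles were run with NaOH stripping and re-annealing between them. The fluorescence ratio per cluster is summed target-cycle over summed buffer-cycle Cy3 intensity, averaged per switch-domain sequence. Clusters outside 100-1000 RFU were excluded.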

| Sequence | switch fluorescence ratio |
| --- | --- |
| ACAATTTTAA | 0.981 |
| GTGTCGCATT | 0.996 |
| TAAAGCAATC | 1.15 |
| TGCGATTAAA | 1.02 |
| ATAAAGTTCT | 0.967 |
| GCTGTTCGGC | 1.01 |
| CGTCTGGGTC | 1.02 |
| GCTTACATAA | 1.11 |
| TGATGGGTTC | 0.969 |
| AATGCGTGGG | 0.987 |
| TTGCAGAGGT | 1.02 |
| TTGGTGGCAT | 1.01 |
| TGTGCTTAGC | 1 |
| AGCTGGACGC | 0.992 |
| CACAACTGGG | 1.05 |
| GTAGAACCCC | 1.07 |
| ACCAGTAGCA | 1.07 |
| ACCCCCACGA | 1.43 |
| GCAATAAATT | 0.947 |
| TACCAAGGAT | 1 |
| GTGGGCTATC | 1 |
| TTCGGAAAGC | 1.09 |
| TACCAAAATT | 0.984 |
| CAGTGGAAAC | 1.07 |
| TTGCGCTCAG | 1.01 |
| CTGTAGTTTA | 1.04 |

| Sequence | switch fluorescence ratio |
| --- | --- |
| TAGGCAGTGC | 1.1 |
| AGTTTTTACG | 1.05 |
| CTATTGTGCT | 0.993 |
| TGTTACTAAT | 1 |
| AATGATATCC | 0.984 |
| ACGTTTCTGG | 1.03 |
| TAAGTGCTTC | 1.02 |
| AGTAACGAAG | 1.02 |
| AACTAGTTTC | 0.988 |
| ATAACCTTC | 2.72 |
| TGTCGCGT | 0.997 |
| TTTTACACGC | 1.01 |
| ACGATGGGTT | 0.967 |
| ATGCCAAAAA | 1 |
| ATATTAATCC | 1.01 |
| GTTATATATT | 0.98 |
| TCGTTGGCT | 0.919 |
| AGTGTGGTCG | 1.08 |
| CCAGTGGCCT | 1.05 |
| TCTGGCATTC | 1.11 |
| CACAATGTAC | 1.47 |
| GAACACATTT | 1.04 |
| TTTGACCCGC | 1.1 |
| TCCGGGTAT | 3.31 |
| ATTAATCTCG | 0.956 |
| CAACGCCGGG | 0.976 |

| Sequence | switch fluorescence ratio |
| --- | --- |
| ATCGGTCGCT | 0.981 |
| CTGTTAAGAT | 0.973 |
| TCTACACATT | 1.1 |
| AATATCCCCA | 1.02 |
| AAGGTCGTGG | 1.02 |
| ACACACTTGT | 1.2 |
| GAACAAGATC | 1.05 |
| GATGGTCTAT | 0.997 |
| AATTTAGAGG | 1.04 |
| TTCACCTCTT | 1 |
| CGGTACTTTC | 0.966 |
| TCGATTAGTC | 0.962 |
| CAGAGGTTCT | 1 |
| CTGTGACATT | 1.05 |
| AGGCCTTCGC | 1.04 |
| AAAGAATGAC | 1.04 |
| TTTCTTGTGG | 1 |
| GGACACGGGC | 1.02 |
| AGCTATTTA | 0.965 |
| TTATAGAATT | 1.04 |
| AAAGCCATGT | 1 |
| AAGCCGGTAT | 0.976 |
| CCTCTTTGGC | 1.13 |
| CAGCTTGGAA | 1 |
| GCTACGTGTA | 1.04 |
| TTCGTAAACC | 1.06 |

| Sequence | switch fluorescence ratio |
| --- | --- |
| TCGATTATCA | 1.02 |
| GGTTAACGTG | 1.01 |
| GCTATCGTAG | 1.01 |
| AATCGCCCGC | 1.05 |
| ATAGTTCGAT | 0.987 |
| TTGGCTCTGT | 0.996 |
| TTTATCCACC | 1.01 |
| GCCTGCCCCA | 1.12 |
| AATAAGTAAC | 1.15 |
| CATTCAGAAT | 1.01 |
| TAATATCTGA | 0.993 |
| TTGAGACGAC | 1.02 |
| TAGTTTGAAG | 0.999 |
| GTCTTGTACC | 0.986 |
| CCAAAGTTTC | 1.06 |
| TGACGTATGG | 1.02 |
| GAGAATACTA | 1.01 |
| TGCCTGGTGC | 1.11 |
| TCCCTGATAG | 0.977 |
| CCATCCCGCG | 2.34 |
| GCAGCCTGAA | 1.01 |
| TCTTCTCTAC | 1.12 |
| GGACTGTAAC | 1.21 |
| AGAGGTGTCA | 0.993 |
| CAAGTTATAT | 0.982 |
| CTTGCTCCAA | 2.06 |

| Sequence | switch fluorescence ratio |
| --- | --- |
| GATGTTATAC | 1.54 |
| ATGATCGGAC | 1.03 |
| GCTGAGCGGG | 0.961 |
| CTATTACAAT | 1.01 |
| GAATACCTGG | 1.03 |
| CTAACTAACT | 1.11 |
| ATACTCTACA | 1.33 |
| CCCCTTACAC | 1.08 |
| TATTAATCGC | 0.992 |
| TGAAGAACAT | 1.05 |
| CAGGATGCGG | 0.971 |
| GTCGTTTGCA | 1.03 |
| AACAGGAGTC | 0.994 |
| CCGGGCTTGA | 0.993 |
| ACGGCCACTA | 1.26 |
| GCCTAATCCG | 1.05 |
| CTTTTTAGAT | 1.01 |
| TTTACCGGGG | 1.03 |
| TGCTAGCAAC | 0.998 |
| AGGCTAGACG | 0.989 |
| AGACGGGTCT | 1.04 |
| CTAATCGAGT | 0.956 |
| TAGTAGGA | 1.02 |
| TAGTGTCCGT | 1.02 |
| CGATTTGAAG | 1.04 |
| GGTTGTTGGT | 0.97 |

| Sequence | switch fluorescence ratio |
| --- | --- |
| GTCTAAGAGG | 1.06 |
| AAACGGAGTC | 0.945 |
| GCGTTATCCT | 1.15 |
| TTTAAATATA | 0.997 |
| AAGAGTCCTA | 0.975 |
| CCACAGGTAG | 1.11 |
| CCGAGATCAT | 1.11 |
| AATCTATTA | 0.987 |
| TAAGACCCAT | 1 |
| CATCTGAATT | 1.03 |
| CTTGGGTGGG | 0.966 |
| TCATGCAGGA | 1.03 |
| ATATGGAGGC | 0.964 |
| ATAATCCGGT | 0.972 |
| GGTATTCGCT | 0.988 |
| AACTGATCTT | 0.977 |
| TTCGGAAGCG | 1.01 |
| TTTTGAGCGC | 1.04 |
| ATGTATTGA | 1.06 |
| TCCCGCAAGG | 2.66 |
| CCGGCGATGG | 1.68 |
| GTATAGTTAC | 1.06 |
| ATTGCTGCGT | 0.973 |

— the supplement of paper PMC10126150
